Results reported in the supplement of paper PMC8728848.
Some of the results follow.

Legend:
Assay in all cases: glycan array binding signal (z-score within array); higher = stronger binding
Conditions in all cases: glycan notation: IUPAC condensed, linker removed
[1] = target: Fuc(a1-3)[Gal(b1-4)]GlcNAc
Procedure, shortened: (§1)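 Negative Z-scores can be read as non-binding. The Z-score is calculated within each array and then averaged across arrays of one protein sequence at different concentrations or buffers and across linkers. Arrays, 3228 in all, were curated from the Consortium for Functional Glycomics database and kept only where the protein sequence was available.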

[2] = target: Fuc(a1-3)[Gal(b1-4)]GlcNAc(b1-2)Man(a1-3)[Fuc(a1-3)[Gal(b1-4)]GlcNAc(b1-2)Man(a1-6)]Man(b1-4)GlcNAc(b1-4)GlcNAc
Procedure, shortened: as §1

[3] = target: Fuc(a1-3)[Gal(b1-4)]GlcNAc(b1-2)Man(a1-3)[Fuc(a1-3)[Gal(b1-4)]GlcNAc(b1-2)Man(a1-6)]Man(b1-4)GlcNAc(b1-4)[Fuc(a1-6)]GlcNAc
Procedure, shortened: as §1

[4] = target: Fuc(a1-3)[Gal(b1-4)]GlcNAc(b1-2)Man(a1-6)[Gal(b1-4)GlcNAc(b1-2)Man(a1-3)]Man(b1-4)GlcNAc(b1-4)GlcNAc
Procedure, shortened: as §1

[5] = target: Fuc(a1-3)[Gal(b1-4)]GlcNAc(b1-3)Gal(b1-3)[Fuc(a1-4)]GlcNAc
Procedure, shortened: as §1

[6] = target: Fuc(a1-3)[Gal(b1-4)]GlcNAc(b1-3)GalNAc
Procedure, shortened: as §1

[7] = target: Fuc(a1-3)[Gal(b1-4)]GlcNAc(b1-4)Gal(b1-4)[Fuc(a1-3)]GlcNAc
Procedure, shortened: as §1

[8] = target: Fuc(a1-3)[Gal(b1-4)]GlcNAc(b1-4)Gal(b1-4)[Fuc(a1-3)]GlcNAc(b1-4)Gal(b1-4)[Fuc(a1-3)]GlcNAc
Procedure, shortened: as §1

[9] = target: Fuc(a1-3)[Gal(b1-4)]GlcNAc(b1-6)GalNAc
Procedure, shortened: as §1

[10] = target: Fuc(a1-3)[Gal(b1-4)]GlcNAc(b1-6)[Gal(b1-3)GlcNAc(b1-3)]Gal(b1-4)Glc
Procedure, shortened: as §1

[11] = target: Fuc(a1-3)[Gal(b1-4)]GlcNAc(b1-6)[Neu5Ac(a2-3)Gal(b1-3)]GalNAc
Procedure, shortened: as §1

[12] = target: Fuc(a1-3)[Gal(b1-4)]GlcNAc6S
Procedure, shortened: as §1

[13] = target: Fuc(a1-3)[Gal3S(b1-4)]Glc6S
Procedure, shortened: as §1

[14] = target: Fuc(a1-3)[Gal3S(b1-4)]GlcNAc
Procedure, shortened: as §1

[15] = target: Fuc(a1-3)[Gal3S(b1-4)]GlcNAc6S
Procedure, shortened: as §1

[16] = target: Fuc(a1-3)[GalNAc(b1-4)]GlcNAc
Procedure, shortened: as §1

[17] = target: Fuc(a1-3)[Neu5Ac(a2-3)]Gal(b1-4)GlcNAc(b1-3)GalNAc
Procedure, shortened: as §1

Fuc(a1-4)GlcNAc = target: Fuc(a1-4)GlcNAc
Procedure, shortened: as §1

Fuc(b1-3)GlcNAc = target: Fuc(b1-3)GlcNAc
Procedure, shortened: as §1

Gal(a1-2)Gal = target: Gal(a1-2)Gal
Procedure, shortened: as §1

Gal(a1-3)Gal = target: Gal(a1-3)Gal
Procedure, shortened: as §1

Gal(a1-3)Gal(b1-3)GlcNAc = target: Gal(a1-3)Gal(b1-3)GlcNAc
Procedure, shortened: as §1

[18] = target: Gal(a1-3)Gal(b1-3)GlcNAc(b1-2)Man(a1-3)[Gal(a1-3)Gal(b1-3)GlcNAc(b1-2)Man(a1-6)]Man(b1-4)GlcNAc(b1-4)GlcNAc
Procedure, shortened: as §1

[19] = target: Gal(a1-3)Gal(b1-3)GlcNAc(b1-3)GalNAc
Procedure, shortened: as §1

[20] = target: Gal(a1-3)Gal(b1-3)[Fuc(a1-4)]GlcNAc(b1-2)Man(a1-3)[Gal(a1-3)Gal(b1-3)[Fuc(a1-4)]GlcNAc(b1-2)Man(a1-6)]Man(b1-4)GlcNAc(b1-4)GlcNAc
Procedure, shortened: as §1

Gal(a1-3)Gal(b1-4)Glc = target: Gal(a1-3)Gal(b1-4)Glc
Procedure, shortened: as §1

Gal(a1-3)Gal(b1-4)GlcNAc = target: Gal(a1-3)Gal(b1-4)GlcNAc
Procedure, shortened: as §1

[21] = target: Gal(a1-3)Gal(b1-4)GlcNAc(b1-3)GalNAc
Procedure, shortened: as §1

[22] = target: Gal(a1-3)Gal(b1-4)[Fuc(a1-3)]GlcNAc
Procedure, shortened: as §1

[23] = target: Gal(a1-3)Gal(b1-4)[Fuc(a1-3)]GlcNAc(b1-2)Man(a1-3)[Gal(a1-3)Gal(b1-4)[Fuc(a1-3)]GlcNAc(b1-2)Man(a1-6)]Man(b1-4)GlcNAc(b1-4)GlcNAc
Procedure, shortened: as §1

Gal(a1-3)GalNAc = target: Gal(a1-3)GalNAc
Procedure, shortened: as §1

[24] = target: Gal(a1-3)[Gal(a1-4)]Gal(b1-4)GlcNAc
Procedure, shortened: as §1

[25] = target: Gal(a1-4)Gal(b1-3)GlcNAc(b1-2)Man(a1-3)[Gal(a1-4)Gal(b1-3)GlcNAc(b1-2)Man(a1-6)]Man(b1-4)GlcNAc(b1-4)GlcNAc
Procedure, shortened: as §1

Gal(a1-4)Gal(b1-4)Glc = target: Gal(a1-4)Gal(b1-4)Glc
Procedure, shortened: as §1

Gal(a1-4)Gal(b1-4)GlcNAc = target: Gal(a1-4)Gal(b1-4)GlcNAc
Procedure, shortened: as §1

[26] = target: Gal(a1-4)Gal(b1-4)GlcNAc(b1-2)Man(a1-3)[Gal(a1-4)Gal(b1-4)GlcNAc(b1-2)Man(a1-6)]Man(b1-4)GlcNAc(b1-4)GlcNAc
Procedure, shortened: as §1

[27] = target: Gal(a1-4)Gal(b1-4)GlcNAc(b1-3)Gal(b1-4)Glc
Procedure, shortened: as §1

B1: BC2L-D C-terminal domain (Burkholderia cenocepacia), Q39MQ9_BURS3 (protein)
chain: LVIVDAVTLLSAYPEASRDPAAPTVIDGRHLYVVSPGDAAQLGHNDSRLFTGLSPGDQLHLRETALALRAEVSVLFIRFALKDAGIVAPIELEVRDAATAVPDADDLLHPSCRPLKDHYWRSDVLAAGATTCTADFAVCDRDGTVSGYFRWETSIEIAGSQPDTKQPGFKPSSDRNGNFSLPPNTAFKAIFYANAADRQDLKLFIDDAPEPAATFVGNSEDGVRLFTLNSKGGKIRIEASANGRQSATDARLAPLSAGDTVWLGWLGAEDGADADYNDGIVILQWPIT
- glycan array binding signal (z-score) [1]: -0.214
- glycan array binding signal (z-score) [2]: -0.129
- glycan array binding signal (z-score) [3]: -0.161
- glycan array binding signal (z-score) [4]: -0.311
- glycan array binding signal (z-score) [5]: 0.288
- glycan array binding signal (z-score) [6]: -0.164
- glycan array binding signal (z-score) [7]: 0.049
- glycan array binding signal (z-score) [8]: 0.024
- glycan array binding signal (z-score) [9]: -0.164
- glycan array binding signal (z-score) [10]: -0.165
- glycan array binding signal (z-score) [11]: -0.16
- glycan array binding signal (z-score) [12]: -0.222
- glycan array binding signal (z-score) [13]: -0.257
- glycan array binding signal (z-score) [14]: -0.258
- glycan array binding signal (z-score) [15]: -0.229
- glycan array binding signal (z-score) [16]: -0.217
- glycan array binding signal (z-score) [17]: -0.166
- glycan array binding signal (z-score) (Fuc(a1-4)GlcNAc): -0.122
- glycan array binding signal (z-score) (Fuc(b1-3)GlcNAc): -0.241
- glycan array binding signal (z-score) (Gal(a1-2)Gal): -0.241
- glycan array binding signal (z-score) (Gal(a1-3)Gal): -0.244
- glycan array binding signal (z-score) (Gal(a1-3)Gal(b1-3)GlcNAc): -0.242
- glycan array binding signal (z-score) [18]: -0.165
- glycan array binding signal (z-score) [19]: -0.163
- glycan array binding signal (z-score) [20]: -0.083
- glycan array binding signal (z-score) (Gal(a1-3)Gal(b1-4)Glc): -0.204
- glycan array binding signal (z-score) (Gal(a1-3)Gal(b1-4)GlcNAc): -0.24
- glycan array binding signal (z-score) [21]: -0.164
- glycan array binding signal (z-score) [22]: -0.217
- glycan array binding signal (z-score) [23]: -0.19
- glycan array binding signal (z-score) (Gal(a1-3)GalNAc): -0.245
- glycan array binding signal (z-score) [24]: -0.247
- glycan array binding signal (z-score) [25]: -0.116
- glycan array binding signal (z-score) (Gal(a1-4)Gal(b1-4)Glc): -0.245
- glycan array binding signal (z-score) (Gal(a1-4)Gal(b1-4)GlcNAc): -0.24
- glycan array binding signal (z-score) [26]: -0.16
- glycan array binding signal (z-score) [27]: -0.231
